Article PMC6919601, “Identification of Plasmodium dipeptidyl aminopeptidase allosteric inhibitors by high throughput screening” (PLoS ONE, 2019)
In all, about 110,000 compounds went through this assay and about 230 (0.21%) showed an effect of 50% or more. The list shows a part of the results.

biological target: DPAP1 (Plasmodium falciparum, UniProt Q8IIJ9); test: primary screen, percent inhibition; read by cleavage of a fluorogenic dipeptide substrate; higher = more effect of the substance; design: species or system P. falciparum D10 trophozoite lysates; single well
Sequence (Q8IIJ9 whole entry, looked up): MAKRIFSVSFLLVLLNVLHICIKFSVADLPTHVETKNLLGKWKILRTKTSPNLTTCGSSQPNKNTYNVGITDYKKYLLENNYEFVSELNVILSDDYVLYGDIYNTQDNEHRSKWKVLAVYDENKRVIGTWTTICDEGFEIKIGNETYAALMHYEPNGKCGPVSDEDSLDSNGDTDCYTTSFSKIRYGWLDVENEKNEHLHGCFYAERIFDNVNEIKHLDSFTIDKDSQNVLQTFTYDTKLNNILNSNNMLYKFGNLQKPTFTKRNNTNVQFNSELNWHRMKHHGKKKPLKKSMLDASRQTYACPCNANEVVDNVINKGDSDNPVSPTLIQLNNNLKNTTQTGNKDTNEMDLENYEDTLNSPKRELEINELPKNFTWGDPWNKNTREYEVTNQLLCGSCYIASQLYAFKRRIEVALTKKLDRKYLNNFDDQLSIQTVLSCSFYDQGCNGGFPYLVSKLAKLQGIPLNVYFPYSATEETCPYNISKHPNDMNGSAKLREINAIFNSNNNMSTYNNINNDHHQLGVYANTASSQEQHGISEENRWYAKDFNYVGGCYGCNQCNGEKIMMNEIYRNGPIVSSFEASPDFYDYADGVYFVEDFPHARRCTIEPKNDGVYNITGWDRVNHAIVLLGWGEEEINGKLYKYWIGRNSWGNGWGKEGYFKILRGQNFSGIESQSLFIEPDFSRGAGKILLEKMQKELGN
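Note: 30 min substrate incubation versus DMSO and 10 µM JCP410 controls.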

Compared with CCCCCCNC(=O)CCCN1C(=O)c2ccccc2C1=O, CCCCNC(=O)CCSc1ccc(Cl)cc1 is higher in “% Inhibition @ 10 uM” value: 0.484% for the first, 1.19% for the second.

Compared with O=c1cc(CSc2nncn3c2cc2sccc23)nc2ccccn12, Clc1ccc(CCNc2nc3ccccc3c3nncn23)cc1 is higher in “% Inhibition @ 10 uM” value: -0.517% for the first, 48.8% for the second.

First: CC(C)(C)S(=O)(=O)c1cc(S(C)(=O)=O)sc1S(C)(=O)=O
Second: Cc1cc(NS(=O)(=O)NC(C)(C)C)no1
The “% Inhibition @ 10 uM” value of the first is higher: 7.96% for the first, -7.35% for the second.

Compared with Cc1ccc(S(=O)(=O)NCc2ccc(C(=O)NC(C)c3ccccc3)cc2)cc1 (centres unmarked), CC(NS(=O)(=O)c1ccc(CCC(=O)Nc2ccc3c(c2)OCCO3)cc1)c1ccccc1 (centres unmarked) is lower in “% Inhibition @ 10 uM” value: 4.81% for the first, -5.81% for the second.

First: Cc1cc(NC(=O)c2cc(-c3ccc(F)cc3)no2)nn1CC(=O)N1CCC(C)CC1
Second: Cc1cc(-c2ccc(S(=O)(=O)N3CCC(C)CC3)cc2)on1
The “% Inhibition @ 10 uM” value of the first is lower: -4.49% for the first, -4.4% for the second.

First: Cc1ccc(OCC(=O)Nc2ccccc2Cl)cc1
Second: Cc1ccc(C)c(OCC(=O)Nc2cccc3cccnc23)c1
The “% Inhibition @ 10 uM” value of the first is higher: 3.35% for the first, 0.189% for the second.

First: Cc1cc(/C=C2\NC(=O)NC2=O)c(C)n1-c1ccc(OCc2ccc(F)cc2)cc1
Second: C#CCOc1ccc(/C=C2/NC(=O)N(Cc3ccccc3F)C2=O)cc1
The “% Inhibition @ 10 uM” value of the first is higher: 3.81% for the first, -15.3% for the second.

Going from CCCC[S+](O)CC(O)COc1ccccc1 (centres unmarked) to CCOC(=O)CSc1ccc2ccccc2n1, the “% Inhibition @ 10 uM” value rises from -4.3% to -0.294%.

First: O=C1C(Cl)=C(Nc2ccc(Cl)cc2)C(=O)N1c1ccccc1
Second: CC(c1ccccc1)N1C(=O)c2ccccc2C1=O (centres unmarked)
The “% Inhibition @ 10 uM” value of the first is higher: -2.83% for the first, -4.74% for the second.

First: Clc1cccc(OCCCCN2CCOCC2)c1
Second: Cc1cc(C)c(C(=O)NCCCN2CCOCC2)c(C)c1
The “% Inhibition @ 10 uM” value of the first is higher: 0.0792% for the first, -4.24% for the second.

Compared with COc1ccc(C(=O)Nc2cccc(C)c2C)cc1OC, COc1ccc(CCNS(=O)(=O)c2c(C)cc(C)c(-n3cnnn3)c2C)cc1OC is lower in “% Inhibition @ 10 uM” value: 0.247% for the first, -2.63% for the second.

Compared with CC1=NN(C(=O)NS(=O)(=O)c2ccccc2Cl)C(C)(C)C1, O=C(CNS(=O)(=O)c1ccccc1)Nc1ccc2c(c1)OCO2 is higher in “% Inhibition @ 10 uM” value: 0.968% for the first, 1.39% for the second.

Compared with Cc1ccccc1OCC(=O)Nc1nnc(S(=O)(=O)N(C)Cc2ccccc2)s1, COCCNC(=O)CN(Cc1ccccc1)S(=O)(=O)c1ccccc1 is lower in “% Inhibition @ 10 uM” value: 2.53% for the first, -3.41% for the second.

First: COc1ccc(N(C(C)C(=O)Nc2ccc(OC)cc2OC)S(C)(=O)=O)cc1 (centres unmarked)
Second: COc1ccc(CC(=O)Nc2cccc(Cl)c2)cc1
The “% Inhibition @ 10 uM” value of the first is higher: -0.185% for the first, -1.93% for the second.

Going from CC(C)n1c(=O)c2oc3ccccc3c2n(Cc2cccc(Cl)c2)c1=O to Cn1c(=O)c2c(-c3ccccc3Cl)n(-c3ccccc3O)cc2n(C)c1=O, the “% Inhibition @ 10 uM” value rises from 0.0244% to 5.17%.

First: Cc1ccc(Cn2c(C)c3cnn(CC(=O)NC4CCCCCC4)c(=O)c3c2C)cc1
Second: O=C(NCCc1ccc(Cl)cc1)C1CCCN(c2ncnc3c2nc2n3CCCCC2)C1 (centres unmarked)
The “% Inhibition @ 10 uM” value of the first is lower: -0.447% for the first, 5.05% for the second.

Going from O=C(O)CC(C(=O)O)c1c[nH]c2ccccc12 (centres unmarked) to CCOc1ccc(NCC(CC(=O)O)C(=O)O)cc1 (centres unmarked), the “% Inhibition @ 10 uM” value rises from 3.47% to 16.8%.

Compared with O=C(NCC12C=CC(O1)C1C(=O)N(Cc3ccccc3)C(=O)C12)c1cccs1 (centres unmarked), c1ccc(CNc2nc(-c3cccs3)cs2)cc1 is higher in “% Inhibition @ 10 uM” value: -5.36% for the first, 3.15% for the second.

Compared with Cc1ccc(OCC(=O)Nc2nonc2NC(=O)COc2ccc(C)cc2)cc1, N#Cc1ccc(OCC(=O)NCc2ccc(-n3cccc3)cc2)cc1 is lower in “% Inhibition @ 10 uM” value: 1.57% for the first, 1.32% for the second.

First: O=C1CCCN1c1ccc(S(=O)(=O)N2CCCCC2)cc1
Second: O=C(O)c1ccc(NC(=O)c2ccc(S(=O)(=O)N3CCCCCC3)cc2)cc1
The “% Inhibition @ 10 uM” value of the first is lower: -5.35% for the first, -4.43% for the second.

First: CN(C)CCN(C)C/C=C/c1ccc(N(C)C)cc1
Second: COC(C)(C)C#C/C=C/S(=O)(=O)c1ccc(C)cc1
The “% Inhibition @ 10 uM” value of the first is higher: -0.603% for the first, -2.6% for the second.

First: CSc1nsc(SCC(=O)NC2=NC(=O)C(C)S2)n1 (centres unmarked)
Second: CC(C)CCNC(=O)Cn1c(SCc2cccc(F)c2)nc2ccncc21
The “% Inhibition @ 10 uM” value of the first is lower: 1.91% for the first, 2.65% for the second.

Compared with CC1(C)CC(=O)C2=C(C1)N(Cc1ccccc1)C(N)=C(C#N)C2c1ccccc1 (centres unmarked), N#CCNC(=O)[C@@H](Cc1ccccc1F)NC(=O)OCc1ccccc1 is higher in “% Inhibition @ 10 uM” value: -3.9% for the first, 0.079% for the second.

Compared with COc1cccc(CSc2nc3c(cc2C#N)CCC3)c1, N#Cc1c(N)nc2c(c1-c1cccc(Br)c1)CCCCC2 is lower in “% Inhibition @ 10 uM” value: 10.2% for the first, -3.14% for the second.

Going from CC1=C(C#N)C(c2ccc(Cl)cc2Cl)C2=C(O)CCCC2=N1 (centres unmarked) to Cc1nc(O)c2c(n1)OC(N)=C(C#N)C2c1cccc(Cl)c1Cl (centres unmarked), the “% Inhibition @ 10 uM” value falls from 2.67% to 1.29%.

Going from Cc1ccc2c(c1Br)C1(C(=O)N2)C(C#N)=C(N)Oc2cc(N)ccc21 (centres unmarked) to N#Cc1cc2c(ccc3ccccc32)oc1=N, the “% Inhibition @ 10 uM” value falls from 5.35% to 4.41%.

Compared with CC(=O)NS(=O)(=O)c1ccc(NC(=O)c2ccc(Br)o2)cc1, NS(=O)(=O)c1ccc(NC(=O)c2ccc([N+](=O)[O-])o2)cc1 is lower in “% Inhibition @ 10 uM” value: 19.7% for the first, 4.26% for the second.

First: N#CC1=C(SCc2ccccc2Cl)NC(=O)CC1c1cccs1 (centres unmarked)
Second: O=C1CC(c2ccccc2Br)C2=C(CCCC2=O)N1 (centres unmarked)
The “% Inhibition @ 10 uM” value of the first is lower: -4.93% for the first, -4.53% for the second.

Going from OCCN(CCO)Cc1ccc(Cl)c(Cl)c1 to O=C(O)CCCC(=O)NCCc1cccc(Cl)c1, the “% Inhibition @ 10 uM” value falls from -2.34% to -6.58%.

Compared with O=C(Nc1noc2ccccc12)c1cc2c(s1)CCCC2, O=C(NCC1CCCO1)c1ccc(F)c2ccccc12 (centres unmarked) is lower in “% Inhibition @ 10 uM” value: 3.77% for the first, -7.3% for the second.

First: O=C(Nc1nccs1)c1cccc(NC(=O)C(c2ccccc2)c2ccccc2)c1
Second: O=C(Nc1ccccc1)c1sc(-c2ccccc2)nc1-c1ccccc1
The “% Inhibition @ 10 uM” value of the first is higher: 0.189% for the first, -3.77% for the second.

Going from COc1ccccc1CNc1nc2ccc(C(=O)c3ccccc3)cc2n2c(C)nnc12 to COc1ccccc1CNc1ccc(C(=O)O)cc1, the “% Inhibition @ 10 uM” value rises from -8.28% to 3.29%.

Compared with CCOC(=O)C1CCN(CC2=CC[C@H]3C[C@@H]2C3(C)C)CC1, CCCN1CCC(Nc2ccc3c(c2)CCC3)CC1 is lower in “% Inhibition @ 10 uM” value: 1.74% for the first, -2.18% for the second.

Going from COc1ccccc1C(=O)Nc1ccncc1 to COc1cccc(NC(=O)c2sc(Cl)nc2-c2ccccc2)c1, the “% Inhibition @ 10 uM” value falls from 5.49% to -0.545%.

Going from COc1cc(C2CC(c3c(O)cc(C)oc3=O)=NCCS2)cc(OC)c1O (centres unmarked) to CCOC(=O)C1=CN(C)C=C(C(=O)OCC)C1c1cc(OC)c(O)c(OC)c1, the “% Inhibition @ 10 uM” value rises from -5.5% to -5.05%.

First: CCOc1cc(C2C3=C(CCCC3=O)N(C)C3=C2C(=O)CCC3)ccc1OCC(=O)O
Second: CC(C)Nc1nc(NC(C)C)nc(OCCNC(=O)COc2ccc(Cl)cc2Cl)n1
The “% Inhibition @ 10 uM” value of the first is higher: 4.76% for the first, 4.55% for the second.

Going from O=C(O)CCC(=O)N1CCN(c2nc(-c3ccccc3)c3ccccc3n2)CC1 to Clc1ccc2nc(-c3ccccc3)nc(N3CCCCC3)c2c1, the “% Inhibition @ 10 uM” value rises from 0.685% to 4.66%.

Going from O=C(CCN1C(=O)c2ccccc2Sc2ncccc21)N1CCOCC1 to O=C(NCc1nnc(SCC(=O)N2CCCCC2)o1)c1c(F)cccc1Cl, the “% Inhibition @ 10 uM” value falls from -0.959% to -7.21%.

First: Cc1n[nH]c(C)c1CCCOc1ccc(F)cc1
Second: Cc1n[nH]c(C)c1CCCCOc1ccccc1Cl
The “% Inhibition @ 10 uM” value of the first is higher: 1.35% for the first, -2.78% for the second.

Compared with CCC(Sc1nc2ccccc2c2nc3ccccc3n12)C(=O)NCc1cccnc1 (centres unmarked), CCc1ccc(CNC(=O)c2cnc(SC)nc2-c2ccccc2)cc1 is higher in “% Inhibition @ 10 uM” value: -2.03% for the first, 2.42% for the second.

First: COc1ccc(CNC(=O)c2cnn3c(C(F)F)cc(-c4ccc(C)cc4)nc23)cc1OC
Second: COc1ccc(C2NN=C(c3ccc(C)cc3)S2)cc1OC (centres unmarked)
The “% Inhibition @ 10 uM” value of the first is higher: 5.94% for the first, -1.33% for the second.

Going from CCc1nc2ccc(C(=O)NCc3c[nH]nc3C)cc2nc1CC to Cc1ccc(C(=O)NCCc2c(C)[nH]c3ccccc23)cc1, the “% Inhibition @ 10 uM” value falls from 1.63% to -0.116%.

Compared with CC(C)C(NC(=O)/C(=C\c1ccco1)NC(=O)c1ccccc1Br)C(=O)O (centres unmarked), O=C(Nc1ccc(Nc2ccccc2)cc1)C1CC1 is lower in “% Inhibition @ 10 uM” value: -1.93% for the first, -3.41% for the second.

First: O=C1C(c2ccc(F)cc2)N(Cc2cccs2)C(=O)CN1C1CCCCC1 (centres unmarked)
Second: O=C(CN(C1CCCCC1)S(=O)(=O)c1ccc(Cl)cc1)N1CCc2ccccc2C1
The “% Inhibition @ 10 uM” value of the first is higher: -3.94% for the first, -7.09% for the second.

Going from Cc1sc2c(c1C)c1nnc(S)n1c1nnc(S)n21 to Cc1cc(=O)oc2c(C)c3occ(-c4ccccc4)c3cc12, the “% Inhibition @ 10 uM” value falls from 0.0069% to -0.958%.

First: CCN(CC)c1ncnc2scc(CC(C)C)c12
Second: CCCCN(Cc1ccco1)S(=O)(=O)c1cc(-c2cc(C)no2)ccc1C
The “% Inhibition @ 10 uM” value of the first is lower: 0.812% for the first, 5.01% for the second.

First: CS(=O)(=O)N(Cc1ccc(C(=O)Nc2ccc3ccccc3c2)cc1)c1ccccc1
Second: O=C(Nc1ccc(-c2nc3ccccc3s2)cc1)c1ccc(Cl)cc1Cl
The “% Inhibition @ 10 uM” value of the first is higher: 0.746% for the first, -0.424% for the second.

Going from O=C(C1CCN(c2ncnc3c2nc2n3CCCCC2)CC1)N1CCN(c2ccccn2)CC1 to O=[N+]([O-])c1ccc(CN2CCCCCC2)cc1, the “% Inhibition @ 10 uM” value falls from 3.5% to -0.0404%.

Compared with CCOC(=O)c1nc(-c2ccc3c(c2)OCO3)no1, COc1ccc(-c2noc(NC(C)c3ccc4c(c3)OCCO4)n2)cc1 (centres unmarked) is lower in “% Inhibition @ 10 uM” value: 7.51% for the first, 3.54% for the second.

First: N#Cc1cn(CCOc2ccc(F)cc2)c2ccccc12
Second: Cc1ccc(C(=O)CSc2nc(N)c(C#N)c(-c3ccc(O)cc3)c2C#N)cc1
The “% Inhibition @ 10 uM” value of the first is higher: 2.46% for the first, -2.47% for the second.

Compared with CCOc1cc2c(cc1/C=C1/NC(=O)N(c3ccc(Cl)cc3)C1=O)OCO2, COCCCNc1oc(-c2cccs2)nc1S(=O)(=O)c1ccc(Cl)cc1 is higher in “% Inhibition @ 10 uM” value: -15.9% for the first, -3.18% for the second.

Going from CSc1ccc(CN2CCN(C)CC2)cc1 to CC1=CC(C)(C)C(C(=O)O)C(C(=O)O)C1 (centres unmarked), the “% Inhibition @ 10 uM” value falls from 4.81% to 3.34%.
